Experimental data: PubChem BioAssay AID493208 (National Center for Advancing Translational Sciences (NCATS), 2011)
About 340 (0.77%) of roughly 44,000 compounds were called active. Roughly 5% stayed inconclusive and do not appear here. Calls come from the whole dose curve; as a rule, active = well fitted inhibition curve with a large enough effect; inconclusive = small, poorly fitted or top-dose-only effect; inactive = flat fitted curve, though single readings scatter. The list shows a part of the results.

Experiment: Acumen qHTS Assay for Inhibitors of the mTORC1 Signaling Pathway in MEF (Tsc2-/-, p53-/-) Cells: Sytravon; note: nearly all actives have a fitted effect of over 50% in size
Conditions: phospho-rpS6 immunofluorescence/PI, 24 h; series mostly up to 38.3 µM; activity change, negative = inhibition: at the top concentration
From the text: NIH Molecular Libraries Probe Production Centers Network [MLPCN] NIH Chemical Genomics Center [NCGC] MLPCN Grant: NS059428-01 Assay Submitter (PI): Blenis, John; Hoffman, Greg; Harvard University NCGC Assay Overview: The mammalian target of rapamycin (mTOR) is an intracellular serine/threonine kinase Aberrant regulation of mTOR signaling plays a causative role in a number of human diseases, including cancer, benign tumors such as lymphangioleiomyomatosis (LAM) and Tuberous Sclerosis Complex (TSC), and metabolic diseases such as diabetes and obesity. This project aims to identify inhibitors of ribosomal protein S6 (rpS6) phosphorylation. The phosphorylation of rpS6 is a key event downstream of mTOR activation. The assay uses a phospho-specific antibody of phospho-rpS6 to detect inhibitors of mTOR activation. Mutations in the Tsc1 and Tsc2 genes are the underlying genetic lesions responsible for TSC, causing constitutive activation of the mTORC1 pathway and leading to profound effects on cell metabolism. Aberrant metabolism in cancer has recently received significant attention as a target to develop therapeutic agents in the treatment of cancer.1 As Tsc2-/- cells have lost the ability to respond to energy and growth factor deprivation, these cells are unable to properly down regulate cellular biosynthetic processes in response to metabolic stress, and are thus extremely sensitive to glucose deprivation-induced death.2 A central goal of this project is to explore the unique cell survival and metabolic properties of cells with Tsc1 or Tsc2 by screening for compounds that selectively target the Tsc2-/- MEFs by screening both Tsc2-/- and WT MEF cell lines. We hope to better understand these aspects of TSC physiology in order to exploit them for therapeutic benefit.
NCGC Acumen Assay Protocol Summary: For quantitative high throughput analysis of mTORC1 signaling, we developed a cell-based assay for immuno-fluorescence based detection of rpS6 phosphorylation on the Acumen Explorer that will be used a platform for the primary small molecule screen. Mouse embryonic fibroblasts (MEFs) are cultured in 1536-well plates using DMEM + 10% FBS. Twenty-four hrs after plating, test compounds (solubilized in DMSO) are delivered and incubated with the cells for 24 hrs at 37 degree Celsius. Following the incubation, media with compound is aspirated and the cells are fixed in 4% paraformaldehyde (PFA) containing PBS + 0.2% TX-100. Next, PFA is aspirated, cells are washed two times with PBS plus 0.2% TX-100 and the cells are blocked for 1 hr at room temperature (blocking buffer: LiCOR Blocking Buffer plus 0.2% TX-100). […] Cells are washed two times with PBS plus 0.2% TX-100, and stained with 10 uM propidium iodide (PI) for 20-25 minutes for cell number measurement (1:500 dilution of Hoescht staining is also added for IN Cell imaging). The plates are scanned on the Acumen Explorer laser scanning instrument (TTP Labtech) using the 488nm laser for simultaneous excitation of the Alexa-488 and PI. […] The normalized phospho-S6 staining is calculated as the ratio of the integrated Alexa 488 intensity divided by the integrated PI intensity for the single concentration rapamycin control (7.5 nM) and DMSO columns. […] Inhibition of the pathway is defined based on the normalized phospho-S6 intensity in rapamycin treated cells. Active cells are defined as those with a normalized phospho-S6 staining above this threshold, and each treatment is reported as the % positive cells in the well, where thresholds are defined by selecting wells with the highest and lowest signal and differentiating between the % non-active and % active populations. In addition to the pathway specific phospho-S6 endpoint, the number of PI stained cells from the Acumen is recorded as a measure of cell viability. The primary screen was performed with a MEF cell line in a defined genetic background, Tsc2-/-, p53-/- cell line stably transfected with an empty vector control (Tsc2-/- MEF).

Activity change, negative = inhibition, inactive:
Cc1c(CCC(=O)NCCc2ccccc2F)c(=O)oc2cc(O)ccc12 -0.0713%
O=C(c1ccc(CSc2nc3ccncc3n2Cc2ccccc2F)cc1)N1CCCCC1 -6.6%
CCOc1ccc(NC(=O)NCCCN2CCN(c3ccc(OC)cc3)CC2)cc1 -7.77%
CCOc1ccccc1Nc1sc(C(=O)c2ccc(Cl)cc2)c(N)c1C#N -2.77%
Cc1ccccc1NC(=O)Cn1c(=O)n(Cc2ccco2)c(=O)c2cccnc21 4.27%
Cc1ccc(-c2cc(C(=O)NCCc3ccccc3)c3ccccc3n2)cc1C 11.1%
O=C(NCc1ccc(F)cc1)c1cccc(N2CCCS2(=O)=O)c1 -17.7%
CN(C)c1ccc(/C=C(\C#N)c2nc3ccccc3c(=O)[nH]2)cc1 -18.4%
CC(C)c1ccc(NC(=O)CNC(=O)Cn2ccc3ccccc3c2=O)cc1 2.74%
Cc1ccc(Cl)cc1NC(=O)C1CCCN(S(=O)(=O)c2c(C)noc2/C=C/N(C)C)C1 (configuration not stated) -1.02%
COC(=O)c1c(NC(=O)CCCOc2ccccc2)sc2c1CCC(C)C2 (configuration not stated) 1.82%
CCC(=O)N1CCc2cc(S(=O)(=O)CCC(=O)N(C)c3ccc(OC)cc3)ccc21 -13%
Cc1cc(Nc2cccc(Cl)c2)nc2ccc(NC(=O)c3ccc(F)cc3Cl)cc12 0.205%
O=C(Nc1ccccc1C(=O)OCc1cc(=O)n2ccsc2n1)c1cccc(F)c1 0%
Cc1ccc2nc(/C(C#N)=C/c3ccc(-c4ccc(F)cc4F)o3)[nH]c2c1 -7.46%
CSc1cccc(NC(=O)c2ccc3c(c2)c(C)c(C)n3Cc2ccc(F)cc2)c1 -22.5%
Cc1cc(C)c2c(CC(=O)Nc3nnc(CC(C)C)s3)coc2c1 -8.46%
COc1ccc(CCCc2nnc(SCC(=O)Nc3ccc(C)c(C)c3)o2)cc1 -1.44%
CCc1ccc(S(=O)(=O)c2cn(C)c3cc(N4CCN(CC)CC4)c(F)cc3c2=O)cc1 0%
O=C(c1ccc(CS(=O)c2ccccc2Cl)o1)N1CCN(c2ccccc2F)CC1 (configuration not stated) -18%
O=S1(=O)N=C(Nc2cccc(C(F)(F)F)c2)c2ccccc21 0.533%
COc1ccccc1-c1c(C)nn2c(C(F)(F)F)cc(-c3ccccc3)nc12 -15.7%
Cc1ccc(CN2CCC(CNC(=O)Nc3c(C)cccc3C)C2)cc1 (configuration not stated) -2.22%
O=C(CCC1N=C2c3ccccc3N=C(SCc3cccc(Cl)c3)N2C1=O)NCc1cccs1 (configuration not stated) -4.33%
CCC(=O)Nc1cccc(-c2cn3c(C)csc3n2)c1 -7.94%
COc1cccc(C(=O)N(Cc2cccc(Cl)c2)Cc2ccco2)c1 -3.94%
CC(C)(C)c1ccc(OCC(=O)Nc2c(C(=O)c3ccc(F)cc3)oc3ccccc23)cc1 0.113%
COc1cc(C(=O)NCCSc2c(-c3ccccc3)[nH]c3ccccc23)cc(OC)c1OC -3.14%
CCOC(=O)c1ccccc1NC(=O)CSc1ncc2c(n1)-c1ccccc1N(CC)S2(=O)=O 2.62%
CCC(C)n1c(=N)c(S(=O)(=O)c2ccccc2)cc2c(=O)n3ccccc3nc21 (configuration not stated) -16.8%
Cc1nn(C)c2c1c(-c1ccccc1)cc(=O)n2CC(=O)NC(C)(C)C -0.176%
COc1cc2nc(SCc3ccc(F)cc3)n3nc(CCn4c(C)nc5ccccc54)nc3c2cc1OC -10.1%
CCOc1ccccc1NC(=O)N1CCN(Cc2cc(=O)n3nc(-c4ccc(C)cc4)sc3n2)CC1 -3.49%
CCCNC(=O)Cn1c(=O)cc(C)c2c(C)nn(-c3cccc(F)c3)c21 -5.68%
COc1cc(Cl)c(C)cc1NC(=O)NC1COc2ccccc2C1 (configuration not stated) -14.4%
CCc1ccc(-c2ccc3nnc(SCC(=O)Nc4cccc(C(C)=O)c4)n3n2)cc1 0.441%
COc1ccc(C2=C(N3CCN(c4cc(Cl)ccc4C)CC3)c3ccccc3C2=O)cc1 -3.1%
COc1ccc(CCNC(=O)Cn2c(-c3cccs3)cc3cc(F)ccc32)cc1OC -9.7%
COc1ccc(CCNC(=O)CN2C(=O)COc3ccccc32)cc1OC -10.2%
COc1cccc(CNC(=O)c2ccc(CS(=O)c3ccccc3)o2)c1 (configuration not stated) -9.91%
COc1ccc(NC(=O)c2oc3ccccc3c2NC(=O)c2cc(OC)c(OC)c(OC)c2)cc1 -0.908%
Cc1cccc(Oc2nc3c(c(=O)n(C)c(=O)n3C)n2C)c1C -4.17%
CCOC(=O)N1CCN(C(=O)c2cnn(-c3cccc(F)c3)c2-n2cccc2)CC1 -3.2%
CCc1ccccc1NC(=O)C(CCSC)NS(=O)(=O)c1ccc2c(c1)oc(=O)n2C (configuration not stated) -1.03%
Cc1ccccc1-c1nn2c(=O)cc(CN3CCN(C(=O)c4ccccc4Br)CC3)nc2s1 0%
Oc1c(C(c2ccc(Cl)cc2)N2CCOCC2)sc2nc(-c3ccco3)nn12 (configuration not stated) -5.97%
CC1CCN(S(=O)(=O)c2ccc3nc(N4CCN(c5ccccc5)CC4)ccc3c2)CC1 1.51%
COc1cccc([C@H]2Nc3ccc(S(=O)(=O)Nc4cc(C)ccc4C)cc3[C@H]3C=CC[C@H]32)c1 -13.7%
Fc1cccc(CSc2nc(NCCc3ccccc3)c3ccccc3n2)c1 -0.783%
COc1ccccc1OCC(=O)Nc1cc(-c2ccc(C)cc2)no1 2.37%
CC(=O)c1cc(-c2ccc(F)cc2)n(CC(=O)NCc2ccc(C)cc2)c1C -2.62%
COc1cc(NS(=O)(=O)c2cccs2)cc(OC)c1 1.72%
Cc1cc(C)c(OCC(=O)Nc2cccc(-c3nc4ncccc4o3)c2)c(Br)c1 -13.1%
Cc1ccc(CSc2ncccc2C(=O)O)cc1 0.233%
Cc1ccc(S(=O)(=O)N2CCCc3cc(NC(=O)c4ccc(C(C)(C)C)cc4)ccc32)cc1 4.61%
CCN(CC)c1ccc(NC(=O)c2sc3nc(-c4ccccc4)cn3c2C)cc1 -12.4%
Cc1nc(-c2ccc(F)cc2)sc1CCNC(=O)C(=O)Nc1ccc2c(c1)OCO2 2.02%
CCCn1c2ccccc2c2cnn(CC(=O)NCCc3cc(OC)ccc3OC)c(=O)c21 -3.06%
CCOC(=O)c1cccc(NC(=O)NCc2ccc3c(c2)CCN3C(=O)CC)c1 0.91%
COc1ccc(N2CCN(C(=O)c3nn(C)c4c3CSc3ccccc3-4)CC2)cc1 -19.4%
CC1=C(C(=O)Nc2cccc(C(F)(F)F)c2)C(c2ccccn2)n2ncnc2N1 (configuration not stated) 2.14%
CCc1ccc(C(=O)c2cn(CC(=O)Nc3ccc(OC)c(Cl)c3)c3nc(C)ccc3c2=O)cc1 0.145%
